Some of the results follow. Single values are uncertain, as repeats are few or missing.

Experiment in all cases: cell count relative to DMSO control; melanoma cells; higher = more viable cells
For one test, the system named is WM115. Particulars: library dose: low library concentration; 72 h.
Another test deals with WM1716. The following applies: library dose: low library concentration; 72 h.
Another test concerns WM1745. The following applies: library dose: low library concentration; 72 h.
In the next test the test system is WM3526. The following applies: library dose: low library concentration; 72 h.
A further test deals with WM3619. Particulars: library dose: low library concentration; 72 h.
The subject of another test is WM451Lu. The following applies: library dose: low library concentration; 72 h.
In another test the test system is 501Mel. Particulars: library dose: standard library concentration; 72 h.
Another test deals with A101D. Particulars: library dose: standard library concentration; 72 h.
In another test the test system is A2058. Particulars: library dose: standard library concentration; 72 h.
In a further test the test system is A375. Particulars: library dose: standard library concentration; 72 h.

As to `N#CC[C@H](C1CCCC1)n1cc(-c2ncnc3[nH]ccc23)cn1` [ruxolitinib] + O=S(=O)(c1ccccc1)N(CC(F)(F)F)c1ccc(C(O)(C(F)(F)F)C(F)(F)F)cc1 [T0901317] (first compound 1 µM, partner dose 1.4 µM), the cell count came out at 102% with WM115; 106% in the test with WM1716; 101% with WM1745; 111% with WM3526; 105% in the test with WM3619; 92.6% in the test with WM451Lu.

Turning to `N#CC[C@H](C1CCCC1)n1cc(-c2ncnc3[nH]ccc23)cn1` [ruxolitinib] + O=C(Nc1cccc(Cl)c1)Nc1ncc(CCNc2ncnc3ccsc23)s1 [SNS314] (first compound 1 µM, partner dose 0.0008 µM), the cell count in the test with WM115 amounted to 84.3%; with WM1745 it was 111%; in the test on WM3526, 106%; in the test on WM3619, 122%; with WM451Lu, 108%.

`CC[C@]1(O)C[C@H]2CN(CCc3c([nH]c4ccccc34)[C@@](C(=O)OC)(c3cc4c(cc3OC)N(C=O)[C@H]3[C@@](O)(C(=O)OC)[C@H](OC(C)=O)[C@]5(CC)C=CCN6CC[C@]43[C@@H]65)C2)C1` [vincristine] + CCN(CC)CCCCNc1ncc2cc(-c3cc(OC)cc(OC)c3)c(NC(=O)NC(C)(C)C)nc2n1 [PD173074] (first compound 0.0001 µM, partner dose 0.1 µM): the cell count with WM115 was 69.2%; in the test with WM1716, 53.4%; with WM1745 it was 82.6%; in the test with WM3526, 73.3%; in the test on WM3619, 82.4%; with WM451Lu it was 69.5%.

As to `N#CC[C@H](C1CCCC1)n1cc(-c2ncnc3[nH]ccc23)cn1` [ruxolitinib] + CCCCCCCCc1ccc(CCC(N)(CO)CO)cc1 [fingolimod] (first compound 1 µM, partner dose 2 µM), the cell count turned out to be 98.9% in the test on WM115; 89% with WM1716; 90% in the test on WM1745; 83% in the test with WM3526; 89.1% with WM3619; 96.3% in the test on WM451Lu.

Turning to `N#CC[C@H](C1CCCC1)n1cc(-c2ncnc3[nH]ccc23)cn1` [ruxolitinib] + CS(=O)(=O)c1ccc(C(=O)Nc2ccc(Cl)c(-c3ccccn3)c2)c(Cl)c1 [vismodegib] (first compound 1 µM, partner dose 1 µM), the cell count was found to be 106% with WM115; 114% in the test with WM1716; 107% with WM1745; 114% with WM3526; 75.1% in the test on WM3619; 82.2% with WM451Lu.

Regarding `N#CC[C@H](C1CCCC1)n1cc(-c2ncnc3[nH]ccc23)cn1` [ruxolitinib] + Nc1cccc2c1CN(C1CCC(=O)NC1=O)C2=O [lenalidomide] (first compound 1 µM, partner dose 1 µM), the cell count in the test on WM115 came out at 123%; in the test on WM1716, 97.3%; in the test with WM1745, 103%; in the test on WM3619, 120%; with WM451Lu, 91.9%.

In the case of `CC[C@]1(O)C[C@H]2CN(CCc3c([nH]c4ccccc34)[C@@](C(=O)OC)(c3cc4c(cc3OC)N(C=O)[C@H]3[C@@](O)(C(=O)OC)[C@H](OC(C)=O)[C@]5(CC)C=CCN6CC[C@]43[C@@H]65)C2)C1` [vincristine] + c1cc(-c2cnn3cc(-c4ccc(OCCN5CCCCC5)cc4)cnc23)ccn1 [Dorsomorphin] (first compound 0.0001 µM, partner dose 0.4 µM), the cell count with WM115 is 39.8%; in the test on WM1716, 39.6%; in the test on WM1745 it was 70.1%; with WM3526 it was 61.8%; with WM3619, 48.9%; in the test with WM451Lu it was 46.2%.

For the compound `N#CC[C@H](C1CCCC1)n1cc(-c2ncnc3[nH]ccc23)cn1` [ruxolitinib] + CNC(=O)c1cc(Oc2ccc(NC(=O)Nc3ccc(Cl)c(C(F)(F)F)c3)cc2)ccn1 [sorafenib] (first compound 1 µM, partner dose 0.4 µM), the cell count is 107% in the test with WM1716; 105% with WM1745; 101% with WM3526; 118% in the test on WM3619; 140% with WM451Lu.

In the case of `CC[C@]1(O)C[C@H]2CN(CCc3c([nH]c4ccccc34)[C@@](C(=O)OC)(c3cc4c(cc3OC)N(C=O)[C@H]3[C@@](O)(C(=O)OC)[C@H](OC(C)=O)[C@]5(CC)C=CCN6CC[C@]43[C@@H]65)C2)C1` [vincristine] + Cn1cncc1[C@@](N)(c1ccc(Cl)cc1)c1ccc2c(c1)c(-c1cccc(Cl)c1)cc(=O)n2C [tipifarnib] (first compound 0.0001 µM, partner dose 0.01 µM), the cell count with WM115 was 28.4%; in the test with WM1716, 44.4%; in the test on WM1745 it was 75.3%; in the test with WM3526 it was 56.5%; with WM3619, 66.1%; in the test with WM451Lu it was 40.5%.

`N#CC[C@H](C1CCCC1)n1cc(-c2ncnc3[nH]ccc23)cn1` [ruxolitinib] + C[C@@H](N)c1ccc(C(=O)Nc2ccnc3[nH]ccc23)cc1 [RKI983] (first compound 1 µM, partner dose 0.4 µM): the cell count in the test on WM115 was determined as 121%; in the test on WM1716, 85%; in the test with WM1745, 86.5%; in the test with WM3526, 129%; in the test with WM3619 it was 116%; with WM451Lu it was 57.6%.

For the compound `N#CC[C@H](C1CCCC1)n1cc(-c2ncnc3[nH]ccc23)cn1` [ruxolitinib] + O=C(O)C(=O)Nc1sc2c(c1C(=O)O)CCNC2 [TCS401] (first compound 1 µM, partner dose 1.66667 µM), the cell count with WM1716 was found to be 109%; in the test on WM1745 it was 96.9%; with WM3526, 87.4%; with WM3619 it was 81.5%; in the test with WM451Lu it was 97.2%.

For `N#CC[C@H](C1CCCC1)n1cc(-c2ncnc3[nH]ccc23)cn1` [ruxolitinib] + Cc1cn(-c2cc(NC(=O)c3ccc(C)c(Nc4nccc(-c5cccnc5)n4)c3)cc(C(F)(F)F)c2)cn1 [nilotinib] (first compound 1 µM, partner dose 0.2 µM), the cell count was determined as 114% in the test on WM115; 96.1% in the test on WM1716; 85.7% in the test on WM1745; 99.5% with WM3619; 87.5% with WM451Lu.

As for `CC[C@]1(O)C[C@H]2CN(CCc3c([nH]c4ccccc34)[C@@](C(=O)OC)(c3cc4c(cc3OC)N(C=O)[C@H]3[C@@](O)(C(=O)OC)[C@H](OC(C)=O)[C@]5(CC)C=CCN6CC[C@]43[C@@H]65)C2)C1` [vincristine] + CC(C)CCN1c2nc(Nc3cc(F)c(O)c(F)c3)ncc2N(C)C(=O)C1C [BID1870] (first compound 0.0001 µM, partner dose 0.2 µM), the cell count in the test on WM115 is 43.8%; with WM1716, 44.9%; in the test on WM1745, 67%; with WM3526, 39.3%; with WM3619, 64.2%; with WM451Lu, 41.2%.

For `N#CC[C@H](C1CCCC1)n1cc(-c2ncnc3[nH]ccc23)cn1` [ruxolitinib] + Cn1c(=O)n(-c2ccc(C(C)(C)C#N)cc2)c2c3cc(-c4cnc5ccccc5c4)ccc3ncc21 [NVP-BEZ235] (first compound 1 µM, partner dose 0.004 µM), the cell count is 109% with WM115; 88.3% in the test on WM1716; 99.6% in the test with WM1745; 98.9% in the test with WM3526; 96.8% with WM3619; 81.1% with WM451Lu.

Turning to `N#CC[C@H](C1CCCC1)n1cc(-c2ncnc3[nH]ccc23)cn1` [ruxolitinib] + C[C@@H](Oc1cc(-c2cnn(C3CCNCC3)c2)cnc1N)c1c(Cl)ccc(F)c1Cl [Crizotinib] (first compound 1 µM, partner dose 0.2 µM), the cell count in the test with WM115 is 108%; with WM1745, 108%; with WM3526, 104%; in the test with WM3619, 109%; in the test with WM451Lu, 90.6%.

For the compound `Cc1cc(Nc2cc(N3CCN(C)CC3)nc(Sc3ccc(NC(=O)C4CC4)cc3)n2)n[nH]1` [Tozasertib] + C#Cc1cccc(Nc2ncnc3cc(OCCOC)c(OCCOC)cc23)c1 [erlotinib] (first compound 0.006 µM, partner dose 0.8 µM), the cell count came to 90.7% with WM115; 111% in the test on WM1716; 85.7% in the test on WM1745; 71.7% in the test on WM3526; 120% in the test with WM3619; 98.3% in the test with WM451Lu.

For `N#CC[C@H](C1CCCC1)n1cc(-c2ncnc3[nH]ccc23)cn1` [ruxolitinib] + CCN(CC)CCCCNc1ncc2cc(-c3cc(OC)cc(OC)c3)c(NC(=O)NC(C)(C)C)nc2n1 [PD173074] (first compound 1 µM, partner dose 0.1 µM), the cell count came to 111% with WM115; 108% in the test with WM1716; 104% with WM1745; 107% in the test on WM3526; 121% with WM451Lu.

For the compound `Cc1cc(Nc2cc(N3CCN(C)CC3)nc(Sc3ccc(NC(=O)C4CC4)cc3)n2)n[nH]1` [Tozasertib] + C[C@@H](N)c1ccc(C(=O)Nc2ccnc3[nH]ccc23)cc1 [RKI983] (first compound 0.006 µM, partner dose 0.4 µM), the cell count with WM115 amounted to 109%; in the test on WM1716, 56.1%; in the test on WM1745, 99.7%; with WM3526, 111%; in the test on WM3619, 132%; in the test on WM451Lu, 60.5%.

For the compound `N#CC[C@H](C1CCCC1)n1cc(-c2ncnc3[nH]ccc23)cn1` [ruxolitinib] + C[C@@H]1CCN(C(=O)CC#N)C[C@@H]1N(C)c1ncnc2[nH]ccc12 [CP690550] (first compound 1 µM, partner dose 1 µM), the cell count worked out at 130% in the test with WM115; 116% in the test on WM1716; 98.2% in the test with WM1745; 112% in the test with WM3526; 105% in the test on WM3619; 111% in the test on WM451Lu.

For the compound `N#CC[C@H](C1CCCC1)n1cc(-c2ncnc3[nH]ccc23)cn1` [ruxolitinib] + C[C@]1(O)C[C@@H](c2nc(-c3ccc4ccc(-c5ccccc5)nc4c3)c3c(N)nccn32)C1 [OSI906] (first compound 1 µM, partner dose 0.4 µM), the cell count with WM115 was found to be 112%; with WM1716, 98.9%; in the test with WM1745 it was 87.5%; with WM3619 it was 103%; in the test with WM451Lu, 99.8%.

Regarding `N#CC[C@H](C1CCCC1)n1cc(-c2ncnc3[nH]ccc23)cn1` [ruxolitinib] + CCN(CC)CCNC(=O)c1c(C)[nH]c(/C=C2\C(=O)Nc3ccc(F)cc32)c1C [sunitinib] (first compound 1 µM, partner dose 0.4 µM), the cell count stood at 119% in the test on WM115; 132% in the test on WM1716; 97.4% in the test with WM1745; 104% in the test on WM3526; 120% in the test on WM3619; 124% in the test with WM451Lu.

In the case of `N#CC[C@H](C1CCCC1)n1cc(-c2ncnc3[nH]ccc23)cn1` [ruxolitinib] + O=S(=O)(c1ccccc1)N(CC(F)(F)F)c1ccc(C(O)(C(F)(F)F)C(F)(F)F)cc1 [T0901317] (first compound 5 µM, partner dose 7 µM), the cell count in the test on 501Mel was found to be 91.3%; in the test on A101D it was 108%; in the test on A2058, 87.7%; in the test with A375, 99.2%.

`Cc1cc(Nc2cc(N3CCN(C)CC3)nc(Sc3ccc(NC(=O)C4CC4)cc3)n2)n[nH]1` [Tozasertib] + COc1ccc2c(c1)CCC1C2CCC2(C)C(NCCCCCCN3C(=O)C=CC3=O)CCC12 [U73122] (first compound 0.03 µM, partner dose 2 µM): the cell count is 105% in the test on 501Mel, 73% with A101D, 73.2% in the test with A2058 and 113% with A375.

For the compound `N#CC[C@H](C1CCCC1)n1cc(-c2ncnc3[nH]ccc23)cn1` [ruxolitinib] + COC(=O)c1sccc1S(=O)(=O)Nc1ccc(Nc2ccccc2)cc1OC [GSK0660] (first compound 5 µM, partner dose 5 µM), the cell count was determined as 118% in the test on 501Mel, 90.8% in the test on A101D, 78.6% in the test on A2058 and 147% in the test with A375.
